The supplement of paper PMC8728848
The other results are listed elsewhere or left out.

Assays:
Test in all cases: glycan array binding signal (z-score within array); higher = stronger binding
Details in all cases: glycan notation: IUPAC condensed, linker removed
[1] = biological target: GlcNAc(b1-2)[GlcNAc(b1-4)]Man(a1-3)[GlcNAc(b1-4)][GlcNAc(b1-2)[GlcNAc(b1-6)]Man(a1-6)]Man(b1-4)GlcNAc(b1-4)GlcNAc
How it was run: (§1)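 From the Consortium for Functional Glycomics database, 3228 arrays were curated, keeping only those whose protein sequence was available. Binding is given as a within-array Z-score averaged across arrays sharing a protein sequence and across linkers. Negative Z-scores can be read as non-binding.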

[2] = biological target: GlcNAc(b1-2)[GlcNAc(b1-4)]Man(a1-3)[GlcNAc(b1-4)][GlcNAc(b1-2)[GlcNAc(b1-6)]Man(a1-6)]Man(b1-4)GlcNAc(b1-4)[Fuc(a1-6)]GlcNAc
How it was run: as §1

[3] = biological target: GlcNAc(b1-2)[GlcNAc(b1-6)]Man(a1-6)[GlcNAc(b1-2)Man(a1-3)]Man(b1-4)GlcNAc(b1-4)GlcNAc
How it was run: as §1

[4] = biological target: GlcNAc(b1-2)[GlcNAc(b1-6)]Man(a1-6)[GlcNAc(b1-2)Man(a1-3)]Man(b1-4)GlcNAc(b1-4)[Fuc(a1-6)]GlcNAc
How it was run: as §1

[5] = biological target: GlcNAc(b1-2)[GlcNAc(b1-6)]Man(a1-6)[GlcNAc(b1-4)][GlcNAc(b1-2)Man(a1-3)]Man(b1-4)GlcNAc(b1-4)GlcNAc
How it was run: as §1

[6] = biological target: GlcNAc(b1-3)Fuc
How it was run: as §1

[7] = biological target: GlcNAc(b1-3)Gal
How it was run: as §1

[8] = biological target: GlcNAc(b1-3)Gal(b1-3)GalNAc
How it was run: as §1

[9] = biological target: GlcNAc(b1-3)Gal(b1-4)Glc
How it was run: as §1

[10] = biological target: GlcNAc(b1-3)Gal(b1-4)GlcNAc
How it was run: as §1

[11] = biological target: GlcNAc(b1-3)Gal(b1-4)GlcNAc(b1-2)Man(a1-3)[GlcNAc(b1-3)Gal(b1-4)GlcNAc(b1-2)Man(a1-6)]Man(b1-4)GlcNAc(b1-4)GlcNAc
How it was run: as §1

[12] = biological target: GlcNAc(b1-3)Gal(b1-4)GlcNAc(b1-2)Man(a1-3)[GlcNAc(b1-3)Gal(b1-4)GlcNAc(b1-2)Man(a1-6)]Man(b1-4)GlcNAc(b1-4)[Fuc(a1-6)]GlcNAc
How it was run: as §1

[13] = biological target: GlcNAc(b1-3)Gal(b1-4)GlcNAc(b1-2)[GlcNAc(b1-3)Gal(b1-4)GlcNAc(b1-6)]Man(a1-6)[GlcNAc(b1-3)Gal(b1-4)GlcNAc(b1-2)Man(a1-3)]Man(b1-4)GlcNAc(b1-4)GlcNAc
How it was run: as §1

[14] = biological target: GlcNAc(b1-3)Gal(b1-4)GlcNAc(b1-3)Gal(b1-4)GlcNAc
How it was run: as §1

[15] = biological target: GlcNAc(b1-3)Gal(b1-4)GlcNAc(b1-3)Gal(b1-4)GlcNAc(b1-2)Man(a1-3)[GlcNAc(b1-3)Gal(b1-4)GlcNAc(b1-3)Gal(b1-4)GlcNAc(b1-2)Man(a1-6)]Man(b1-4)GlcNAc(b1-4)GlcNAc
How it was run: as §1

[16] = biological target: GlcNAc(b1-3)Gal(b1-4)GlcNAc(b1-3)Gal(b1-4)GlcNAc(b1-2)Man(a1-3)[GlcNAc(b1-3)Gal(b1-4)GlcNAc(b1-3)Gal(b1-4)GlcNAc(b1-2)Man(a1-6)]Man(b1-4)GlcNAc(b1-4)[Fuc(a1-6)]GlcNAc
How it was run: as §1

[17] = biological target: GlcNAc(b1-3)Gal(b1-4)GlcNAc(b1-3)Gal(b1-4)GlcNAc(b1-2)[GlcNAc(b1-3)Gal(b1-4)GlcNAc(b1-3)Gal(b1-4)GlcNAc(b1-6)]Man(a1-6)[GlcNAc(b1-3)Gal(b1-4)GlcNAc(b1-3)Gal(b1-4)GlcNAc(b1-2)Man(a1-3)]Man(b1-4)GlcNAc(b1-4)[Fuc(a1-6)]GlcNAc
How it was run: as §1

[18] = biological target: GlcNAc(b1-3)Gal(b1-4)GlcNAc(b1-3)Gal(b1-4)GlcNAc(b1-3)Gal(b1-4)GlcNAc(b1-2)Man(a1-3)[GlcNAc(b1-3)Gal(b1-4)GlcNAc(b1-3)Gal(b1-4)GlcNAc(b1-3)Gal(b1-4)GlcNAc(b1-2)Man(a1-6)]Man(b1-4)GlcNAc(b1-4)GlcNAc
How it was run: as §1

[19] = biological target: GlcNAc(b1-3)Gal(b1-4)GlcNAc(b1-3)Gal(b1-4)GlcNAc(b1-3)Gal(b1-4)GlcNAc(b1-2)Man(a1-3)[GlcNAc(b1-3)Gal(b1-4)GlcNAc(b1-3)Gal(b1-4)GlcNAc(b1-3)Gal(b1-4)GlcNAc(b1-2)Man(a1-6)]Man(b1-4)GlcNAc(b1-4)[Fuc(a1-6)]GlcNAc
How it was run: as §1

[20] = biological target: GlcNAc(b1-3)Gal(b1-4)GlcNAc(b1-3)Gal(b1-4)GlcNAc(b1-3)Gal(b1-4)GlcNAc(b1-2)[GlcNAc(b1-3)Gal(b1-4)GlcNAc(b1-3)Gal(b1-4)GlcNAc(b1-3)Gal(b1-4)GlcNAc(b1-6)]Man(a1-6)[GlcNAc(b1-3)Gal(b1-4)GlcNAc(b1-3)Gal(b1-4)GlcNAc(b1-3)Gal(b1-4)GlcNAc(b1-2)Man(a1-3)]Man(b1-4)GlcNAc(b1-4)[Fuc(a1-6)]GlcNAc
How it was run: as §1

[21] = biological target: GlcNAc(b1-3)Gal(b1-4)GlcNAc(b1-3)Gal(b1-4)GlcNAc(b1-3)Gal(b1-4)GlcNAc(b1-3)Gal(b1-4)GlcNAc(b1-2)Man(a1-3)[GlcNAc(b1-3)Gal(b1-4)GlcNAc(b1-3)Gal(b1-4)GlcNAc(b1-3)Gal(b1-4)GlcNAc(b1-3)Gal(b1-4)GlcNAc(b1-2)Man(a1-6)]Man(b1-4)GlcNAc(b1-4)GlcNAc
How it was run: as §1

[22] = biological target: GlcNAc(b1-3)Gal(b1-4)GlcNAc(b1-3)Gal(b1-4)GlcNAc(b1-3)Gal(b1-4)GlcNAc(b1-3)Gal(b1-4)GlcNAc(b1-2)Man(a1-3)[GlcNAc(b1-3)Gal(b1-4)GlcNAc(b1-3)Gal(b1-4)GlcNAc(b1-3)Gal(b1-4)GlcNAc(b1-3)Gal(b1-4)GlcNAc(b1-2)Man(a1-6)]Man(b1-4)GlcNAc(b1-4)[Fuc(a1-6)]GlcNAc
How it was run: as §1

[23] = biological target: GlcNAc(b1-3)Gal(b1-4)GlcNAc(b1-3)Gal(b1-4)GlcNAc(b1-3)Gal(b1-4)GlcNAc(b1-3)Gal(b1-4)GlcNAc(b1-2)[GlcNAc(b1-3)Gal(b1-4)GlcNAc(b1-3)Gal(b1-4)GlcNAc(b1-3)Gal(b1-4)GlcNAc(b1-3)Gal(b1-4)GlcNAc(b1-6)]Man(a1-6)[GlcNAc(b1-3)Gal(b1-4)GlcNAc(b1-3)Gal(b1-4)GlcNAc(b1-3)Gal(b1-4)GlcNAc(b1-3)Gal(b1-4)GlcNAc(b1-2)Man(a1-3)]Man(b1-4)GlcNAc(b1-4)[Fuc(a1-6)]GlcNAc
How it was run: as §1

B1: PX14367B-bvu-516-23-516 (Bacteroides vulgatus) (protein)
chain: LDTIPTTYVDAGSVFGKTGDAEKVLNGGWNYLMETFNSYANPGYGAMLRANDAMGSDVVLNSKYGFRTHNEFSAIYGKGGTNTLSWLLAYRVINDCNGVLDNIDAAEGTQADRNRIKGQALALRGFLYLHLASCYSFAIDKDPDAVCAPIYTQSTDETIAAEGKPASSVSEVYAQSINDLEEALELIPETYVRDAKHKIDNEVVLGILSRACLYARQWEKAKTYSDKLLAKDNYLMTESEYKAGFNSVDNKEWIWGHAQTNDQSNASYQFHYLDTTTKGSYYYSFNVDPYFRDLFEDGDYRKEMLFWATDPGADVESAAYVWMRNSKFRFRDIENQLGDIVLMRVAEIYLINAEAKAHLNDPDAINKLNDLKTARGAKTIHTNLSQQDLLETIWLERRKELWGEGFSLIDIIRNQQTVVRNAYPEGPIDYIYTDENGQTHTLKKKTQGHRFFNFPDKSAFCPNSKYYLYRITDSEELANKNLYKDHPKLSIYTK
**Q.** Which “glycan array binding signal (z-score)” value [1] does the source give for B1 here?
**A.** The value was -0.297.

**Q.** What about the “glycan array binding signal (z-score)” value [2] of the same binder?
**A.** Its value is -0.389.

**Q.** What about the “glycan array binding signal (z-score)” value [3] of the same binder?
**A.** Its value is -0.082.

**Q.** What about the “glycan array binding signal (z-score)” value [4] of the same binder?
**A.** The value was -0.326.

**Q.** And the “glycan array binding signal (z-score)” value [5]?
**A.** The value was -0.314.

**Q.** And the “glycan array binding signal (z-score)” value [6]?
**A.** Its value is -0.382.

**Q.** What about the “glycan array binding signal (z-score)” value [7] of the same binder?
**A.** Its value is -0.302.

**Q.** And the “glycan array binding signal (z-score)” value [8]?
**A.** Its value is -0.209.

**Q.** What about the “glycan array binding signal (z-score)” value [9] of the same binder?
**A.** Its value is -0.323.

**Q.** What about the “glycan array binding signal (z-score)” value [10] of the same binder?
**A.** The value was -0.338.

**Q.** And the “glycan array binding signal (z-score)” value [11]?
**A.** The value was -0.242.

**Q.** And the “glycan array binding signal (z-score)” value [12]?
**A.** Its value is -0.238.

**Q.** And the “glycan array binding signal (z-score)” value [13]?
**A.** Its value is 1.42.

**Q.** What about the “glycan array binding signal (z-score)” value [14] of the same binder?
**A.** The value was -0.331.

**Q.** And the “glycan array binding signal (z-score)” value [15]?
**A.** Its value is -0.22.

**Q.** And the “glycan array binding signal (z-score)” value [16]?
**A.** Its value is -0.169.

**Q.** And the “glycan array binding signal (z-score)” value [17]?
**A.** Its value is 0.081.

**Q.** And the “glycan array binding signal (z-score)” value [18]?
**A.** Its value is 2.37.

**Q.** What about the “glycan array binding signal (z-score)” value [19] of the same binder?
**A.** The value was 0.057.

**Q.** What about the “glycan array binding signal (z-score)” value [20] of the same binder?
**A.** Its value is 2.54.

**Q.** What about the “glycan array binding signal (z-score)” value [21] of the same binder?
**A.** Its value is -0.276.

**Q.** What about the “glycan array binding signal (z-score)” value [22] of the same binder?
**A.** The value was -0.264.

**Q.** And the “glycan array binding signal (z-score)” value [23]?
**A.** Its value is 1.67.
